# Data published in the supplement of paper PMC8728848.
# This is one part of the list.
# Experiments:
# Assay in all cases: glycan array binding signal (z-score within array); higher = stronger binding
# Settings in all cases: glycan notation: IUPAC condensed, linker removed
# Gal(a1-3)Gal = target: Gal(a1-3)Gal
# Method in brief: (§1)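 Negative Z-scores can be read as non-binding. The Z-score is calculated within each array and then averaged across arrays of one protein sequence at different concentrations or buffers and across linkers. Arrays, 3228 in all, were curated from the Consortium for Functional Glycomics database and kept only where the protein sequence was available.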
# Gal(a1-3)Gal(b1-3)GlcNAc = target: Gal(a1-3)Gal(b1-3)GlcNAc
# Method in brief: as §1
# [1] = target: Gal(a1-3)Gal(b1-3)GlcNAc(b1-2)Man
# Method in brief: as §1
# [2] = target: Gal(a1-3)Gal(b1-3)GlcNAc(b1-2)Man(a1-3)[Gal(a1-3)Gal(b1-3)GlcNAc(b1-2)Man(a1-6)]Man(b1-4)GlcNAc(b1-4)GlcNAc
# Method in brief: as §1
# [3] = target: Gal(a1-3)Gal(b1-3)GlcNAc(b1-3)GalNAc
# Method in brief: as §1
# [4] = target: Gal(a1-3)Gal(b1-3)GlcNAc(b1-6)GalNAc
# Method in brief: as §1
# [5] = target: Gal(a1-3)Gal(b1-3)[Fuc(a1-4)]GlcNAc(b1-2)Man(a1-3)[Gal(a1-3)Gal(b1-3)[Fuc(a1-4)]GlcNAc(b1-2)Man(a1-6)]Man(b1-4)GlcNAc(b1-4)GlcNAc
# Method in brief: as §1
# Gal(a1-3)Gal(b1-4)Glc = target: Gal(a1-3)Gal(b1-4)Glc
# Method in brief: as §1
# Gal(a1-3)Gal(b1-4)GlcNAc = target: Gal(a1-3)Gal(b1-4)GlcNAc
# Method in brief: as §1
# [6] = target: Gal(a1-3)Gal(b1-4)GlcNAc(b1-2)Man
# Method in brief: as §1
# [7] = target: Gal(a1-3)Gal(b1-4)GlcNAc(b1-2)Man(a1-3)[Gal(a1-3)Gal(b1-4)GlcNAc(b1-2)Man(a1-6)]Man(b1-4)GlcNAc(b1-4)GlcNAc
# Method in brief: as §1
# [8] = target: Gal(a1-3)Gal(b1-4)GlcNAc(b1-3)GalNAc
# Method in brief: as §1
# [9] = target: Gal(a1-3)Gal(b1-4)GlcNAc(b1-6)GalNAc
# Method in brief: as §1
# [10] = target: Gal(a1-3)Gal(b1-4)[Fuc(a1-3)]GlcNAc
# Method in brief: as §1
# [11] = target: Gal(a1-3)Gal(b1-4)[Fuc(a1-3)]GlcNAc(b1-2)Man(a1-3)[Gal(a1-3)Gal(b1-4)[Fuc(a1-3)]GlcNAc(b1-2)Man(a1-6)]Man(b1-4)GlcNAc(b1-4)GlcNAc
# Method in brief: as §1
# Gal(a1-3)GalNAc = target: Gal(a1-3)GalNAc
# Method in brief: as §1
# [12] = target: Gal(a1-3)[Gal(a1-4)]Gal(b1-4)GlcNAc
# Method in brief: as §1
# [13] = target: Gal(a1-4)Gal(b1-3)GlcNAc(b1-2)Man(a1-3)[Gal(a1-4)Gal(b1-3)GlcNAc(b1-2)Man(a1-6)]Man(b1-4)GlcNAc(b1-4)GlcNAc
# Method in brief: as §1
# Gal(a1-4)Gal(b1-4)Glc = target: Gal(a1-4)Gal(b1-4)Glc
# Method in brief: as §1
# Gal(a1-4)Gal(b1-4)GlcNAc = target: Gal(a1-4)Gal(b1-4)GlcNAc
# Method in brief: as §1
# [14] = target: Gal(a1-4)Gal(b1-4)GlcNAc(b1-2)Man(a1-3)[Gal(a1-4)Gal(b1-4)GlcNAc(b1-2)Man(a1-6)]Man(b1-4)GlcNAc(b1-4)GlcNAc
# Method in brief: as §1
# [15] = target: Gal(a1-4)Gal(b1-4)GlcNAc(b1-3)Gal(b1-4)Glc
# Method in brief: as §1
# Gal(a1-4)GlcNAc = target: Gal(a1-4)GlcNAc
# Method in brief: as §1
# Gal(a1-6)Glc = target: Gal(a1-6)Glc
# Method in brief: as §1
# Gal(b1-2)Gal = target: Gal(b1-2)Gal
# Method in brief: as §1
# Gal(b1-3)Gal = target: Gal(b1-3)Gal
# Method in brief: as §1
# Gal(b1-3)Gal(b1-4)GlcNAc = target: Gal(b1-3)Gal(b1-4)GlcNAc
# Method in brief: as §1
# Gal(b1-3)GalNAc = target: Gal(b1-3)GalNAc
# Method in brief: as §1
# [16] = target: Gal(b1-3)GalNAc(a1-3)[Fuc(a1-2)]Gal(b1-4)Glc
# Method in brief: as §1
# [17] = target: Gal(b1-3)GalNAc(a1-3)[Fuc(a1-2)]Gal(b1-4)GlcNAc
# Method in brief: as §1
# Gal(b1-3)GalNAc(b1-3)Gal = target: Gal(b1-3)GalNAc(b1-3)Gal
# Method in brief: as §1
# [18] = target: Gal(b1-3)GalNAc(b1-3)Gal(a1-4)Gal(b1-4)Glc
# Method in brief: as §1
# [19] = target: Gal(b1-3)GalNAc(b1-4)Gal(b1-4)Glc
# Method in brief: as §1
# [20] = target: Gal(b1-3)GalNAc(b1-4)[Neu5Ac(a2-3)]Gal(b1-4)Glc
# Method in brief: as §1
# Gal(b1-3)GlcNAc = target: Gal(b1-3)GlcNAc
# Method in brief: as §1
# [21] = target: Gal(b1-3)GlcNAc(a1-3)Gal(b1-4)GlcNAc
# Method in brief: as §1
# [22] = target: Gal(b1-3)GlcNAc(a1-6)Gal(b1-4)GlcNAc
# Method in brief: as §1
# Gal(b1-3)GlcNAc(b1-2)Man = target: Gal(b1-3)GlcNAc(b1-2)Man
# Method in brief: as §1
binder,measurement,setting,value
"AT1G73650(15) (Arabidopsis thaliana), F4HRY1 (protein) MGTVLDSHFLALTAIVTVIYQFIFFVITALFKFDQVTDFAGSTNFVILAVLTLVLKASWHFRQIVLTLLVVVWGLRLGIFLLMETRILQWGEDRRFDEQRGNIVRLIIFWTLQAVWVWTVSLPLTLVNASDGGGSLKPADVIGWTMETWVFGFLIEAAADQQKLSFKNSPENRGKWCDVGVWKYSRHPNYFGEMETLLWWGIFVAASPVLEGAEYLVIFGPLFLTLLLLFVSGIPLLEASADKKHGNSGAYRSYKKTTSPLILFPRGVYGNLPGWFKTVFLFEFPFYSRNLPQEGRLQNSKEKEVKDD",glycan array binding signal (z-score),Gal(a1-3)Gal,0.015
same,glycan array binding signal (z-score),Gal(a1-3)Gal(b1-3)GlcNAc,0.064
same,glycan array binding signal (z-score),[1],-0.474
same,glycan array binding signal (z-score),[2],1.53
same,glycan array binding signal (z-score),[3],-0.239
same,glycan array binding signal (z-score),[4],-0.002
same,glycan array binding signal (z-score),[5],-0.118
same,glycan array binding signal (z-score),Gal(a1-3)Gal(b1-4)Glc,3.4
same,glycan array binding signal (z-score),Gal(a1-3)Gal(b1-4)GlcNAc,-0.242
same,glycan array binding signal (z-score),[6],-0.493
same,glycan array binding signal (z-score),[7],-0.128
same,glycan array binding signal (z-score),[8],-0.374
same,glycan array binding signal (z-score),[9],-0.542
same,glycan array binding signal (z-score),[10],-0.487
same,glycan array binding signal (z-score),[11],-0.086
same,glycan array binding signal (z-score),Gal(a1-3)GalNAc,0.849
same,glycan array binding signal (z-score),[12],3.43
same,glycan array binding signal (z-score),[13],-0.28
same,glycan array binding signal (z-score),Gal(a1-4)Gal(b1-4)Glc,0.464
same,glycan array binding signal (z-score),Gal(a1-4)Gal(b1-4)GlcNAc,0.585
same,glycan array binding signal (z-score),[14],-0.592
same,glycan array binding signal (z-score),[15],-0.482
same,glycan array binding signal (z-score),Gal(a1-4)GlcNAc,-0.576
same,glycan array binding signal (z-score),Gal(a1-6)Glc,-0.341
same,glycan array binding signal (z-score),Gal(b1-2)Gal,-0.609
same,glycan array binding signal (z-score),Gal(b1-3)Gal,-0.662
same,glycan array binding signal (z-score),Gal(b1-3)Gal(b1-4)GlcNAc,0.597
same,glycan array binding signal (z-score),Gal(b1-3)GalNAc,0.159
same,glycan array binding signal (z-score),[16],-0.729
same,glycan array binding signal (z-score),[17],0.517
same,glycan array binding signal (z-score),Gal(b1-3)GalNAc(b1-3)Gal,-0.616
same,glycan array binding signal (z-score),[18],0.351
same,glycan array binding signal (z-score),[19],3.21
same,glycan array binding signal (z-score),[20],0.118
same,glycan array binding signal (z-score),Gal(b1-3)GlcNAc,-0.32
same,glycan array binding signal (z-score),[21],-0.442
same,glycan array binding signal (z-score),[22],0.337
same,glycan array binding signal (z-score),Gal(b1-3)GlcNAc(b1-2)Man,-0.312
